Measurements reported in PubChem BioAssay AID2546 (National Center for Advancing Translational Sciences (NCATS), 2010).
Screen size: about 310,000 compounds; about 11,000 (3.5%) were called active. The shares of active, inactive and inconclusive entries below differ from those in the screen. Calls follow the shape of the dose curve; as a rule, active = well fitted inhibition curve with a large enough effect; inconclusive = small, poorly fitted or top-dose-only effect, or effect the other way; inactive = flat fitted curve, though single readings scatter. No potency is given beside an inconclusive call; the fits are too rough.

Experiment: VP16 counterscreen qHTS for inhibitors of ROR gamma transcriptional activity;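 also: Gal4-VP16 expression switched on by copper sulfate through the metallothionein promoter; nearly all actives have a fitted effect of over 50% in size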
Conditions: Drosophila S2 Gal4-VP16 UAS-luciferase, luminescence, 20 h; series mostly up to 53.6 µM
Potency is read from the fitted curve at half-maximal effect; tags tell the direction and shape of the fitted curve.

Structure (SMILES)	Potency
Cc1ccc(S(=O)(=O)NC(C)CCc2ccccc2)cc1C(N)=O (stereo not drawn)	inconclusive [inhibitor, partial curve, poor fit]
COc1cccc(/C=N/NC(=O)c2cc(-c3cccn3C)n[nH]2)c1O	active: 2.82 µM
COc1ccc(CNC(=O)C2CC(c3cccc(OC)c3)=NO2)cc1 (stereo not drawn)	inactive
Cc1ccc(S(=O)(=O)NNC(=S)NCCc2ccccc2)cc1	inconclusive [inhibitor, single point]
CC(C)(C)n1ncc2c(=O)n(Cc3ccc(Cl)cc3)cnc21	inconclusive [inhibitor, single point]
COc1ccccc1NC=C1C(=O)OC2(CCCCC2)OC1=O	inactive
COc1ccc(CSc2ncn[nH]2)cc1[N+](=O)[O-]	inconclusive [activator, single point]
COC(=O)C1=C(C)NC(=S)NC1c1ccc(-c2cccc(Cl)c2)o1 (stereo not drawn)	inconclusive [inhibitor, single point]
COc1ccc(C2CC(c3c(-c4ccccc4)c4cc(Cl)ccc4[nH]c3=O)=NN2S(C)(=O)=O)cc1OC (stereo not drawn)	inconclusive [inhibitor, single point]
C=C(C)C1CC=C(C)/C(=N/NC(=O)COc2cccc3ccccc23)C1 (stereo not drawn)	inconclusive [activator, full curve, poor fit]
O=C(CCCSc1ccccc1)Nc1nc(-c2ccco2)c(-c2ccco2)s1	inconclusive [inhibitor, single point]
O=C(CSc1nnc(CCc2ccccc2)n1-c1ccc(Cl)cc1)c1ccccc1	inconclusive [inhibitor, single point]
COc1cc(CCC(=O)Nc2ccc(Br)c(C(F)(F)F)c2)cc(OC)c1OC	inconclusive [activator, single point]
CC1=NN(C(N)=S)C(=O)C1N=Nc1cccc(Cl)c1C (stereo not drawn)	active: 1 µM
C=CCn1c(SCC(=O)c2ccc(O)c(O)c2)nnc1-c1cccnc1	inactive
COc1ccc(Cl)cc1C(=O)NNC(=S)NC(=O)c1cc(-c2ccccc2)nc2ccccc12	inconclusive [inhibitor, full curve, poor fit]
O=C(Cc1ccc(N2CCNC2=O)cc1)N1CCCC(Nc2cccc(F)c2)C1 (stereo not drawn)	inconclusive [inhibitor, single point]
CCCc1cc(=O)[nH]c(SCC(=O)N(C)Cc2ccccc2)n1	inactive
O=C(NC(=S)Nc1nc2ccc(F)cc2s1)c1ccco1	active: 1.78 µM
Cc1ccc2oc(=O)c(/C=C(\O)c3ccccc3)nc2c1	inconclusive [activator, partial curve, poor fit]
CCOC(=O)c1nnc(-c2ccccc2)nc1Sc1ccccc1Cl	inconclusive [inhibitor, single point]
O=[N+]([O-])c1ccc(Cl)cc1NCCCN1CCOCC1	inconclusive [activator, partial curve]
COc1ccc(-c2nnc(-c3ccc(OCC(C)C)cc3)o2)cc1	inactive
CC(C)(C)NS(=O)(=O)c1ccc(CCC(=O)NCc2ccc3c(c2)OCO3)cc1	inconclusive [inhibitor, full curve, poor fit]
C/C(=N\NC(=O)c1nnn(-c2nonc2N)c1-c1cccs1)c1ccncc1	inactive

Structure (SMILES)	Potency
CCCCOc1ccc(Br)cc1CSC(=N)N	active: 10 µM
COC(=O)Nc1cccn(Cc2c(Cl)cccc2Cl)c1=O	inactive
O=C(Nc1ccncc1)C1CCN(S(=O)(=O)c2cccs2)CC1	inactive
COc1ccc(Cl)cc1NC(=O)CNc1ccc(F)cc1C	inconclusive [inhibitor, single point]
CCn1cc(C(=O)NCCCN2CCCC(C)C2)c(=O)c2cc(S(=O)(=O)N(C)C3CCCCC3)ccc21 (stereo not drawn)	inactive
Nc1nc2ccccc2n1C(=O)c1ccccc1	active: 5.01 µM
Oc1ccc(/C=N/NC(=S)Nc2cccnc2)cc1	inconclusive [inhibitor, full curve]
COc1cc(/C=N\NC(=O)c2ccc(-c3ccccc3)cc2)ccc1OCC(N)=O	inconclusive [inhibitor, single point]
CCSc1nnc(NC(=O)c2nn(C(C)C)c(=O)c3ccccc23)s1	inconclusive [inhibitor, single point]
Cc1cc(C)cc(NC(=S)NCCc2c[nH]c3ccccc23)c1	active: 12.6 µM
O=C(c1cccnc1)N1CCN(Cc2cccc(F)c2)CC1	inactive
CCOC(=O)c1c(C)[nH]c(=S)c(C#N)c1-c1ccc(OC)cc1	inconclusive [inhibitor, single point]
O=C(c1cccc(OC2CCN(Cc3ccc(F)cc3)CC2)c1)N1CCCC1	inactive
CC(=O)Nc1ccc(S(=O)(=O)Nc2nc3ccccc3nc2N2CCc3ccccc3C2)cc1	inactive
Cc1ccc(C(=O)N/N=C\c2ccccc2[N+](=O)[O-])cn1	inconclusive [inhibitor, partial curve]
CC(=O)N1c2ccc([N+](=O)[O-])cc2NC(=O)CC1C (stereo not drawn)	inconclusive [activator, single point]
Cc1cccc(-n2ncc3c(N4CCC(C)CC4)ncnc32)c1	inconclusive [inhibitor, partial curve]
CC(=O)NC(=O)c1ccc(-c2ccc(Cl)cc2)o1	inconclusive [activator, single point]
CC1=C(C(=O)OC(C)C)C(c2cccs2)NC(=S)N1 (stereo not drawn)	inconclusive [inhibitor, single point]
COc1cccc([C@@H]2Oc3ccc(Br)cc3C(=O)[C@H]2OC(=O)NCc2ccc3c(c2)OCO3)c1	inconclusive [inhibitor, single point]
Cc1cccc2sc(NNC(=O)c3ccc(S(=O)(=O)N4CCCC(C)C4)cc3)nc12 (stereo not drawn)	active: 3.16 µM
CCOc1ccc(C(=O)Nc2cccc(C)n2)cc1	inconclusive [inhibitor, single point]
Cc1ccc(-c2nn(-c3cccc(F)c3)cc2CN(Cc2nccn2C)C(C)C)o1	inconclusive [inhibitor, single point]
Cc1ccccc1C(=O)N1CCC(C(=O)Nc2ccc(S(=O)(=O)N3CCCC3)cc2)CC1	inactive
O=C(NN1C(=O)/C(=C\c2cccnc2)SC1=S)c1ccco1	inconclusive [activator, partial curve]

Structure (SMILES)	Potency
CC(=O)C1=C(C)NC(SCC(=O)Nc2nccs2)=C(C#N)C1c1ccccc1Cl (stereo not drawn)	inconclusive [inhibitor, single point]
O=C(NC(=S)N1CCCCC1)c1cccnc1	active: 3.16 µM
Brc1ccccc1/C=N/Nc1nc2ccccc2o1	inconclusive [inhibitor, single point]
CCc1cc(=O)oc2cc(C)cc(OCC(=O)N3CCC(C(=O)NC(C)C)(c4ccccc4)CC3)c12	inactive
Cc1cc2n(n1)SC(Nc1ccccc1)N2 (stereo not drawn)	active: 4.47 µM
Cc1ccccc1-c1nnc(-c2ccccc2)o1	inactive
Cc1cc2c(c(=O)o1)[C@H](O)[C@H]1O[C@@H]1C2=O	inconclusive [inhibitor, single point]
O=C(CSc1nc2ccccc2s1)Nc1ccc(N2CCOCC2)c(Cl)c1	inconclusive [inhibitor, single point]
O=C(CNc1cccc(C(F)(F)F)c1)N/N=C/c1cn(-c2ccccc2)nc1-c1ccccc1	inconclusive [inhibitor, single point]
COc1ccc(-c2nc(-c3ccc(Br)o3)no2)cc1OC	inconclusive [activator, single point]
CC1(C)Cc2nc3sc(C(=O)NCCCO)c(N)c3cc2CS1	inconclusive [inhibitor, single point]
CCCN(CC1CCCO1)C(=O)c1cc(COc2cccc(OC)c2)on1 (stereo not drawn)	inconclusive [activator, single point]
CCN(CC)CCNC(=O)c1cc2c(=O)n(C)c3ccccc3c2n1C	inconclusive [inhibitor, single point]
C=CCc1cccc(/C=N/NC(=O)CCCNc2ccc(C)cc2)c1O	active: 2 µM
Nc1n[nH]c(C(F)(F)F)c1-c1ccccc1	inconclusive [inhibitor, single point]
O=C(Oc1ccc(Cl)c2cccnc12)c1cccc([N+](=O)[O-])c1	active: 1.58 µM
Cc1ccc(N=CC2=C(O)CC(c3cccc(Cl)c3)CC2=O)cc1 (stereo not drawn)	inconclusive [activator, single point]
CCCCn1c(SCC(=O)NC(C)CC)nc2ccc(N3CCOCC3)cc2c1=O (stereo not drawn)	active: 20 µM
O=C(CCCn1c(=S)[nH]c2cc3c(cc2c1=O)OCO3)NCCc1ccccc1Cl	inconclusive [inhibitor, single point]
C/C(=N\NC(=O)CCC(=O)Nc1ccccc1)c1cccs1	inactive
Cc1ncc(CN2CCCC(C(=O)Nc3ccc(-c4ccco4)cc3)C2)cn1 (stereo not drawn)	inactive
COc1cccc(CN(Cc2cccnc2)S(=O)(=O)c2ccc(-n3cnnn3)c(C)c2)c1	inconclusive [inhibitor, single point]
O=c1c2ccccc2nc(-c2ccc(Cl)c(Cl)c2)n1O	inconclusive [inhibitor, single point]
